Experimental data published in publication PMC9409320.
No constants are given. Whether binding was seen depends on the method and setting. Binding seen in cells or lysates may run through a third protein. Some entries that bind do so weakly or less than the wild type.

Sequences of proteins named here, by UniProt entry; tags and fusion partners are left off. A change or cut given only in a name is not applied to a line headed by its entry.
UniProt P17742: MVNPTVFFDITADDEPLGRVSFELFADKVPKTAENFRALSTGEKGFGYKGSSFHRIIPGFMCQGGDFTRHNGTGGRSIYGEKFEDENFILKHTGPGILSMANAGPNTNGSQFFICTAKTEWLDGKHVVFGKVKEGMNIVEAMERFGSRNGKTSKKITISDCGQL
UniProt Q08775: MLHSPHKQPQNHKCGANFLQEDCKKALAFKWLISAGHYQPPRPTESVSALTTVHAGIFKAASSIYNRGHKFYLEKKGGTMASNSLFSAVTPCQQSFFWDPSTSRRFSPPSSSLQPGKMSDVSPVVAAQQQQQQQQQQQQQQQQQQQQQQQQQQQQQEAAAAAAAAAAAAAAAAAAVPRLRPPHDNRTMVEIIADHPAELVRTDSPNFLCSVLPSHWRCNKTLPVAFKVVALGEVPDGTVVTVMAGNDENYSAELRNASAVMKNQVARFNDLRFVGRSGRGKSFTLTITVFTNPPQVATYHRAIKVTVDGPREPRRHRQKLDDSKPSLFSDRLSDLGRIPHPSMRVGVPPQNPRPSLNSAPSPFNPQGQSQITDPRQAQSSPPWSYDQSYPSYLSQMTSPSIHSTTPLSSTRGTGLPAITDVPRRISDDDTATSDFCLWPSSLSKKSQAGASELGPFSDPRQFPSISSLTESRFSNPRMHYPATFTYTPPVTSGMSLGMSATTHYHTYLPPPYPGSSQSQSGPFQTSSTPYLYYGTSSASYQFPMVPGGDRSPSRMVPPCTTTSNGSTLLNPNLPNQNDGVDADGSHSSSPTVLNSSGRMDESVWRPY
UniProt Q8VI67: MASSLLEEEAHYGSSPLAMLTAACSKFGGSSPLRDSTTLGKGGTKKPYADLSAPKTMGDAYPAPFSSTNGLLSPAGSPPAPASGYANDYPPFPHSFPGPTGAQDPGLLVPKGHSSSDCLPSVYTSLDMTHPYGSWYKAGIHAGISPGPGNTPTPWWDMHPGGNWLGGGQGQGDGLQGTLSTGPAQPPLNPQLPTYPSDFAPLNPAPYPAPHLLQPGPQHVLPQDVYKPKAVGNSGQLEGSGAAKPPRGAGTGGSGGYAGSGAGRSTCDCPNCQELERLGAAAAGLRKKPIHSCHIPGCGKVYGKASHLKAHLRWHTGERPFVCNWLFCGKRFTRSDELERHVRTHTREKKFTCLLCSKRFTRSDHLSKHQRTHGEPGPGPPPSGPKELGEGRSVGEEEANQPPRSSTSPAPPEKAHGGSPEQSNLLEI

How the values were obtained:
GST-CypA = GST-CypA (UniProt P17742); assay: pull-down; GST-CypA on glutathione Sepharose beads incubated with total cell lysates for 4 h at 4 °C; washed with RB buffer (20 mM HEPES pH 7.4, 120 mM NaCl, 10% glycerol, 2 mM EDTA); immunoblot; only the target purified
Myc-tagged Runx2 = Myc-tagged Runx2 (UniProt Q08775); assay: co-IP; HEK293 cells co-transfected with HA-CypA and Myc-tagged transcription factor; immunoprecipitation with Myc antibody, immunoblot with HA or Myc antibody; lysis in 25 mM HEPES pH 7.4, 150 mM NaCl, 1% NP-40, 0.25% sodium deoxycholate
Osterix = Osterix (UniProt Q8VI67); assay: as above
HA-tagged Cyclophilin A = HA-tagged Cyclophilin A (UniProt P17742); assay: co-IP; HEK293 cells co-transfected with HA-CypA and Myc-tagged Runx2 deletion mutants; immunoprecipitation with HA antibodies, immunoblot with HA or Myc antibodies

Substance	binding (GST-CypA)	binding (Myc-tagged Runx2)	binding (Osterix)	binding (HA-tagged Cyclophilin A)
Myc-tagged Runx2 (from UniProt Q08775 1-607)	binds	–	–	–
HA-tagged Cyclophilin A (from UniProt P17742 1-164)	–	binds	no binding	–
Myc-tagged Runx2 deletion mutant, Runt domain (from UniProt Q08775 187-315) (domain or fragment)	binds	–	–	binds
